# Laboratory results: PubChem BioAssay (NCATS)
# Inconclusive results are not listed. Unless noted, calls come from the whole dose curve. More than one record can exist for a structure, and the calls need not agree. Not every entry of the source has a single result; some have several. Only these are listed. There may be further records. Values that stand side by side repeat one measurement across runs, samples, wells, individuals or studies. Brackets tell where a record comes from. Letters count within one entry. Marks such as (2×) give the number of equal values in this list.
# How the values were obtained:
# [1] = Primary qHTS for inhibitors of La Crosse Virus (LACV) - induced cell death in SH-SY5Y cells (AID 1508616; active = well fitted curve in the direction sought with a large enough effect; an effect the other way counts as inactive or inconclusive); conditions: SH-SY5Y LACV cytopathicity rescue, ATP luminescence, 6 d; series mostly up to 9.63 µM
# How it was run: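 Protection against LACV-induced cell death is scored in SH-SY5Y cells exposed to compounds and virus (0.01 MOI) for 6 days. Data normalized to virus-infected DMSO wells and virus-free DMSO wells.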
# [2] = qHTS of pediatric cancer cell lines to identify multiple opportunities for drug repurposing: Primary screen for Rh18 cells (AID 1347102; active = well fitted curve in the direction sought with a large enough effect; an effect the other way counts as inactive or inconclusive; note: nearly all actives have a fitted effect of over 65% in size); conditions: Rh18 rhabdomyosarcoma viability, CellTiter-Glo luminescence, 48 h; series mostly up to 46 µM
# How it was run: (§1)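 Cells (500-1,000/well) rested 5 h, then received compounds for 48 h; metabolically active cells were measured by CellTiter-Glo luminescence. Final concentrations spanned up to 46 µM (MIPE, 11-point) or 0.59 nM-46 µM (NPC, 8-point) in primary screens, 11-point in follow-ups.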
# [3] = qHTS for Inhibitors of the Functional Ribonucleoprotein Complex (vRNP) of Lassa (LASV) Arenavirus: Viability assay - alamar blue signal for LASV Primary Screen (AID 1347083; calls by dose curve; tested in HEK293 reporter line; note: nearly all actives have a fitted effect of over 80% in size); conditions: cell viability, alamar blue fluorescence (LASV minigenome counter-screen); series mostly up to 57.5 µM
# [4] = qHTS for Inhibitors of the Functional Ribonucleoprotein Complex (vRNP) of Lymphocytic Choriomeningitis Arenaviruses (LCMV): Viability assay - alamar blue signal for LCMV Primary Screen (AID 1347085; calls by dose curve; tested in HEK293 reporter line; note: nearly all actives have a fitted effect of over 80% in size); conditions: alamar blue viability counter-screen, LCMV vRNP screen cells; series mostly up to 57.5 µM
# [5] = target: Nucleoprotein (Lymphocytic choriomeningitis virus (strain Armstrong)) (UniProt P09992); assay: qHTS for Inhibitors of the Functional Ribonucleoprotein Complex (vRNP) of Lymphocytic Choriomeningitis Arenaviruses (LCMV): LCMV Primary Screen - GLuc reporter signal (AID 1347086); conditions: LCMV minigenome vRNP cell assay, Gaussia luciferase reporter; series mostly up to 57.5 µM; note: nearly all actives have a fitted effect of over 70% in size
# Sequence of UniProt P09992 (P09992 whole entry, looked up): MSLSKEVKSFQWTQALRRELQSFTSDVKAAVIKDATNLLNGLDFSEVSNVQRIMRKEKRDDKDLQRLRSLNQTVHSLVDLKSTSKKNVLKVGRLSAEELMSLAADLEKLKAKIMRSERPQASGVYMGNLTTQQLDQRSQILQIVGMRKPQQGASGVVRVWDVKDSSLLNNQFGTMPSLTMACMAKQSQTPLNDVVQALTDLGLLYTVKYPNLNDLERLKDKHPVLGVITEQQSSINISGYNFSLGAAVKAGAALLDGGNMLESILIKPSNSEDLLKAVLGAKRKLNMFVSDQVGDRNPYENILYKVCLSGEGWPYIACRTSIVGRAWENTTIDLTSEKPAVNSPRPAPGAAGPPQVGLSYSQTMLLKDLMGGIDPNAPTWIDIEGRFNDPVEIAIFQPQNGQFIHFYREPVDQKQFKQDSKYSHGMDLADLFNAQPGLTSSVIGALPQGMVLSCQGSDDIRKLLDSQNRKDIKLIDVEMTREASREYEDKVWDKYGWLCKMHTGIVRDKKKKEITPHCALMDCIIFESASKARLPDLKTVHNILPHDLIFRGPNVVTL
# [6] = qHTS of pediatric cancer cell lines to identify multiple opportunities for drug repurposing: Primary screen for SK-N-MC cells (AID 1347093; active = well fitted curve in the direction sought with a large enough effect; an effect the other way counts as inactive or inconclusive); conditions: SK-N-MC viability, CellTiter-Glo luminescence, 48 h; series mostly up to 46 µM
# [7] = qHTS of pediatric cancer cell lines to identify multiple opportunities for drug repurposing: Primary screen for NB1643 cells (AID 1347099; active = well fitted curve in the direction sought with a large enough effect; an effect the other way counts as inactive or inconclusive; note: nearly all actives have a fitted effect of over 50% in size); conditions: NB1643 neuroblastoma viability, CellTiter-Glo luminescence, 48 h; series mostly up to 46 µM
# [8] = target: Retinoic acid receptor RXR-alpha (Homo sapiens) (UniProt P19793); assay: qHTS assay for small molecule agonists of retinoid X receptor alpha signaling (AID 588544); conditions: HEK293T RXRa-UAS-bla, beta-lactamase reporter, 18 h; series mostly up to 76.7 µM
# Sequence of UniProt P19793 (P19793 whole entry, looked up): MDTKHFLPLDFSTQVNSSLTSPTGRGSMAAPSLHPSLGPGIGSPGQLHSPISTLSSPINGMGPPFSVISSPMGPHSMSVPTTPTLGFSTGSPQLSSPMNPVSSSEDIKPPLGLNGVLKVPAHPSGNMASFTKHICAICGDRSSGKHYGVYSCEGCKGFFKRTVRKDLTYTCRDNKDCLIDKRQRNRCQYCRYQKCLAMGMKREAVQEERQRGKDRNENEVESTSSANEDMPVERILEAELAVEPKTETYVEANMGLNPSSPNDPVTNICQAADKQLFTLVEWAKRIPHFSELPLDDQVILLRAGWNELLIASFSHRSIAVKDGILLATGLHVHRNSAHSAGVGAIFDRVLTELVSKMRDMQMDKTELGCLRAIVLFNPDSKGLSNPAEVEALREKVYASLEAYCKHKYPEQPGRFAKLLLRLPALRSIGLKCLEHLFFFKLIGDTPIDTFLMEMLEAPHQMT
# [9] = qHTS of pediatric cancer cell lines to identify multiple opportunities for drug repurposing: Primary screen for OHS-50 cells (AID 1347103; active = well fitted curve in the direction sought with a large enough effect; an effect the other way counts as inactive or inconclusive; note: nearly all actives have a fitted effect of over 40% in size); conditions: OHS-50 osteosarcoma viability, CellTiter-Glo luminescence, 48 h; series mostly up to 57.3 µM
# How it was run: as §1
# [10] = qHTS for Inhibitors of the Functional Ribonucleoprotein Complex (vRNP) of Lassa (LASV) Arenavirus: LASV Primary Screen - GLuc reporter signal (AID 1347082; calls by dose curve; tested in HEK293 reporter line; note: nearly all actives have a fitted effect of over 60% in size); conditions: LASV minigenome vRNP, Gaussia luciferase reporter; series mostly up to 57.5 µM
# [11] = qHTS of pediatric cancer cell lines to identify multiple opportunities for drug repurposing: Primary screen for RD cells (AID 1347104; active = well fitted curve in the direction sought with a large enough effect; an effect the other way counts as inactive or inconclusive; note: nearly all actives have a fitted effect of over 55% in size); conditions: RD rhabdomyosarcoma viability, CellTiter-Glo luminescence, 48 h; series mostly up to 46 µM
# How it was run: (§2)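 Viability was measured as metabolically active cells after 48 hours of treatment, read by CellTiter-Glo luminescence. Compounds were tested at multiple final concentrations, giving concentration-response curves.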
# [12] = qHTS of pediatric cancer cell lines to identify multiple opportunities for drug repurposing: Primary screen for MG 63 (6-TG R) cells (AID 1347105; active = well fitted curve in the direction sought with a large enough effect; an effect the other way counts as inactive or inconclusive; note: nearly all actives have a fitted effect of over 50% in size); conditions: MG 63 (6-TG R) viability, CellTiter-Glo, 48 h; series mostly up to 46 µM
# How it was run: as §2
# [13] = qHTS of pediatric cancer cell lines to identify multiple opportunities for drug repurposing: Primary screen for SK-N-SH cells (AID 1347098; active = well fitted curve in the direction sought with a large enough effect; an effect the other way counts as inactive or inconclusive; note: nearly all actives have a fitted effect of over 65% in size); conditions: SK-N-SH viability, CellTiter-Glo luminescence, 48 h; series mostly up to 57 µM
# How it was run: as §1
# [14] = qHTS of pediatric cancer cell lines to identify multiple opportunities for drug repurposing: Primary screen for SJ-GBM2 cells (AID 1347091; active = well fitted curve in the direction sought with a large enough effect; an effect the other way counts as inactive or inconclusive); conditions: SJ-GBM2 viability, CellTiter-Glo luminescence, 48 h; series mostly up to 46 µM
# How it was run: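 Cell viability, CellTiter-Glo luminescence; 500-1,000 cells/well, 8- or 11-point titration, 48 h compound exposure at 37 degrees C, 5% CO2. Controls: DMSO neutral, bortezomib 2.3 µM final as positive.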
# [15] = qHTS of pediatric cancer cell lines to identify multiple opportunities for drug repurposing: Primary screen for A673 cells (AID 1347092; active = well fitted curve in the direction sought with a large enough effect; an effect the other way counts as inactive or inconclusive; note: nearly all actives have a fitted effect of over 45% in size); conditions: A673 Ewing sarcoma viability, CellTiter-Glo ATP luminescence, 48 h; series mostly up to 46 µM
# How it was run: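 A673 cells (500-1,000 cells/well) were treated 48 hours at 37 degrees C with compounds at 11-point (0.78 nM to 46 µM) or 8-point (0.59 nM to 46 µM) dilutions. Viability read by CellTiter-Glo luminescence; concentration-response curves fitted.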
# Potency is the fitted concentration of half-maximal effect.
structure (smiles),measurement,setting,value
CCCN1CCC[C@@H]2Cc3nc(N)ncc3C[C@H]21,Potency,[1],inactive [sample A] and active: 1.12 µM [sample B]
Oc1cc(Cl)ccc1Oc1ccc(Cl)cc1Cl,Potency,[2],active: 31.3 µM [sample A] and inactive [sample B]
CN(C)c1nc(N(C)C)nc(N(C)C)n1,Potency,[3],inactive [sample A] and inactive [sample B] and active: 27.3 µM [sample C]
same,Potency,[4],inactive [sample A] and inactive [sample B] and active: 27.3 µM [sample C]
same,Potency,[5],inactive [sample A] and inactive [sample B] and active: 30.6 µM [sample C]
COC(=O)C1=C(C)NC(C)=C(C(=O)OC(C)C)C1c1cccc2nonc12 (stereo unspecified),Potency,[3],active: 9.68 µM [sample A] and inactive [sample B]
same,Potency,[4],active: 19.3 µM [sample A] and inactive [sample B]
same,Potency,[5],active: 21.7 µM [sample A] and inactive [sample B]
CC12CC3CC(C)(C1)CC(N)(C3)C2,Potency,[3],inactive [sample A] and active: 27.3 µM [sample B] and inactive [sample C]
CNS(=O)(=O)Cc1ccc2[nH]cc(CCN(C)C)c2c1,Potency,[4],inactive [sample A] and active: 10.9 µM [sample B]
COc1ccc(C(CN(C)C)C2(O)CCCCC2)cc1 (stereo unspecified),Potency,[6],inactive [sample A] and active: 33.2 µM [sample B]
COc1cc2c(c(OC)c1OC)-c1ccc(OC)c(=O)cc1[C@@H](NC(C)=O)CC2,Potency,[5],inactive (3×) and active: 0.7 nM [separate samples]
O=C1CC[C@@]2(O)[C@H]3Cc4ccc(O)c5c4[C@@]2(CCN3CC2CC2)[C@H]1O5,Potency,[6],active: 18.7 µM [sample A] and inactive [sample B]
same,Potency,[7],active: 8.33 µM [sample A] and inactive [sample B]
COC[C@H]1OC(=O)c2coc3c2[C@@]1(C)C1=C(C3=O)C2CCC(=O)[C@@]2(C)C[C@H]1OC(C)=O (stereo partly specified),Potency,[4],inactive [sample A] and inactive [sample B] and active: 38.5 µM [sample C]
Nc1nc2c(ncn2COC(CO)CO)c(=O)[nH]1,Potency,[3],active: 6.85 µM [sample A] and inactive [sample B]
same,Potency,[4],active: 21.7 µM [sample A] and inactive [sample B]
OCCOc1ccccc1,Potency,[8],inactive [sample A] and active: 15.8 µM [sample B] and inactive [sample C]
COc1ccc(C(=O)c2c(C)n(CCN3CCOCC3)c3ccccc23)cc1,Potency,[9],inactive [sample A] and active: 17.4 µM [sample B]
Cc1ccc(-n2nc(C(C)(C)C)cc2NC(=O)Nc2ccc(OCCN3CCOCC3)c3ccccc23)cc1,Potency,[3],active: 4.32 µM [sample A] and inactive [sample B]
same,Potency,[4],active: 17.2 µM [sample A] and inactive [sample B]
CN(C)CCCN1c2ccccc2CCc2ccc(Cl)cc21,Potency,[10],inactive [sample A] and active: 2.17 µM [sample B] and inactive [sample C]
same,Potency,[3],inactive [sample A] and active: 1.09 µM [sample B]
same,Potency,[4],inactive [sample A] and active: 1.22 µM [sample B] and inactive [sample C]
same,Potency,[5],active: 2.17 µM [sample A] and inactive [sample B]
CN1C[C@H]2c3ccccc3Oc3ccc(Cl)cc3[C@@H]2C1,Potency,[4],active: 24.3 µM [sample A] and inactive [sample B]
Oc1ccc(Cl)cc1Cc1ccccc1,Potency,[11],active: 61.8 µM [sample A] and inactive [sample B]
same,Potency,[12],active: 24.6 µM [sample A] and inactive [sample B]
NC(=O)NO,Potency,[10],inactive [sample A] and inactive [sample B] and active: 17.2 µM [sample C]
same,Potency,[3],inactive [sample A] and inactive [sample B] and active: 344 nM [sample C]
same,Potency,[4],inactive [sample A] and inactive [sample B] and active: 968 nM [sample C]
same,Potency,[5],inactive [sample A] and inactive [sample B] and active: 8.63 µM [sample C]
CC(C)C(=O)Nc1ccc([N+](=O)[O-])c(C(F)(F)F)c1,Potency,[5],inactive [sample A] and inactive [sample B] and active: 13.7 µM [sample C]
O=c1[nH]cc(F)c(=O)[nH]1,Potency,[4],inactive [sample A] and active: 4.85 µM [sample B]
same,Potency,[5],inactive [sample A] and active: 21.7 µM [sample B]
N[C@@H](Cc1ccc(N(CCCl)CCCl)cc1)C(=O)O,Potency,[13],active: 27.3 µM [sample A] and inactive [sample B]
CC#C[C@]1(O)CC[C@H]2[C@@H]3CCC4=CC(=O)CCC4=C3[C@@H](c3ccc(N(C)C)cc3)C[C@@]21C,Potency,[10],inactive [sample A] and active: 1.22 µM [sample B]
same,Potency,[3],inactive [sample A] and inactive [sample B] and active: 432 nM [sample C]
same,Potency,[4],inactive [sample A] and inactive [sample B] and active: 217 nM [sample C]
same,Potency,[5],inactive [sample A] and inactive [sample B] and active: 273 nM [sample C]
O=P1(NCCCl)OCCCN1CCCl (stereo unspecified),Potency,[14],inactive [sample A] and active: 23.5 µM [sample B]
same,Potency,[15],inactive [sample A] and active: 18.7 µM [sample B]
Cn1ccc2cc3c(cc21)CCN3C(=O)Nc1cccnc1,Potency,[4],inactive [sample A] and active: 15.3 µM [sample B]
NC(=O)N/N=C/c1ccc([N+](=O)[O-])o1,Potency,[5],active: 28.2 µM [sample A] and inactive [sample B]
CC(C)(C)CC(C)(C)c1ccc(O)cc1,Potency,[15],active: 38.6 µM [sample A] and inactive [sample B]
same,Potency,[12],active: 38.6 µM [sample A] and inactive [sample B]
